± gives the standard deviation of the averaged measurements. Some of the results follow.
tested on: PfAP2-I AP2 domain 3 (GST-tagged); test: gcPBM binding intensity (ln(normalized median fluorescence intensity)); higher = stronger DNA binding
Summary of the method: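 After 1 h on an Agilent 4 × 180k array of primer-extended double-stranded 36-bp intergenic genomic probes and negative controls, bound GST-tagged P. falciparum DNA-binding domains were detected with Alexa488 anti-GST antibody and scanned at 488 nm. The domains had been expressed in E. coli, and binding took place in 1× PBS with 1% milk, 0.2 mg/ml BSA, 0.5% salmon testes DNA and 0.03% Triton X-100. Binding intensity is the highest Masliner-normalised natural-log median intensity across replicate spots of either probe orientation.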

Sequence	gcPBM binding intensity (ln)
CCCACAGACGGACACACACACACATATATATATATA [CACACA_site4352]	9.3 ± 0.4
ATAAAAATGGATGAATATAAAAAAAAAAAAATATAT [CACACA_negctrl_site182]	7.74 ± 0.59
GAATATATAAGAACAAATATGGCTTAGAAAAAAAAA [TGCATGCA_negctrl_site451]	7.53 ± 0.88
TACAAAAGTTAAACATGTACTTAATTATATGTTTTT [XGTACX_site2852]	7.37 ± 0.44
CATATATATAAATACACACACACACCCCTTATAATT [CACACA_site4064]	8.31 ± 0.26
TAGGAGCCGAAACACACACACAAAAAAAAAAAAAAA [CACACA_site1731]	8.06 ± 0.71
TTTTACAATAACAATACACACTATAATATATATATA [CACACA_site4893]	8.795 ± 0.078
AAAAGAATTTGAAGTCGTACAATATCTATTATATGA [XGTACX_site8275]	7.61 ± 0.37
AAAAAAAAATAAAAATGTACATATATAATATTATAT [XGTACX_site71]	7.79 ± 0.49
ATATAATATACTTATTGTACTTATTTAAAATACTAA [XGTACX_site4266]	7.88 ± 0.22
AAAAAATGGCTAGTTTGTACACAAAAGTTATTGCAT [XGTACX_site5381]	8.28 ± 0.3
AAGATAAAATTATGCACACATACGAATAATTTTAAA [CACACA_site1705]	9.79 ± 0.39
TTTCTCAATTCTTAGAGTACATAAATAAAAAAAAAA [XGTACX_site7639]	7.91 ± 0.42
TTAACTTTTATATAGTGTACAAATAAATGCATACAG [XGTACX_site5958]	8.29 ± 0.43
TTATTATTTAACATGTGGACACAAAAATTTAAGGGT [XGTACX_site4638]	8.24 ± 0.51
AAAAAACAAAAACACACACACACATATATATATATA [CACACA_site3654]	9.46 ± 0.13
ATCACTAACATGTGTTGTACATAAAATTTGTTTGTT [XGTACX_site2207]	7.63 ± 0.47
TGAACACAGACAAATACACACAAAAAAAATAAATAA [CACACA_site4298]	7.79 ± 0.46
TATTATGTATAAAGAAGTACTTTTTTTTTTTTTTTC [XGTACX_site201]	7.43 ± 0.35
TGCAAATTTAACAAAAAAAAAAAAAAAAAAAAAAAA [GTGCAC_negctrl_site64]	8.14 ± 0.9
TCTACTACTTAATGGAGTACTAGCTTCATAATATTA [XGTACX_site7030]	7.46 ± 0.47
GATTATTTAAAATATACATGCGCGCACATATGCATA [TGCATGCA_site630]	8.21 ± 0.4
TGCATTTTCCTATTTGCATGCAATTAAAATATAGAA [TGCATGCA_site862]	8.12 ± 0.47

Sequence	gcPBM binding intensity (ln)
AACATATATACAGTAACACACACAAAAAAATATGAA [CACACA_site9323]	8.03 ± 0.54
ATGTTTTAATGAGGTTTGCACTATATTTTAATGAAC	9.22 ± 0.32
AAGAAAATAAAATAAAAAAAAAAATAAAAAAAATAA [TGCATGCA_negctrl_site516]	7.3 ± 0.52
TTTTAAAGCATATCATATAAAGAACATGACATAGGA [CACACA_negctrl_site630]	7.69 ± 0.52
AACATTTTTAAATATATAAAAATATATATATATATA [XGTACX_negctrl_site551]	9.37 ± 0.26
TTATATTTATGATACACACACGTATATTCACATACA [CACACA_site6354]	7.88 ± 0.57
GTATGTTTAATTTTAGTGCAATTATAAATATTTTAA [GTGCAC_site9531]	10.2 ± 0.3
TTGCCATTAATTTATACACACACATTTTAATTTTTT [CACACA_site8150]	8.02 ± 0.5
TTGTCATTTATAAAATGTACGTGTGTATATATTTAA [XGTACX_site5000]	7.85 ± 0.42
TCAATAGTTACTAGTACATGCAAAAATAAACCTATA [TGCATGCA_site85]	7.88 ± 0.64
CAAATATATATGTTCACACATATAATTATTGTGAAA [CACACA_site4190]	7.43 ± 0.42
CTATTAAAAAAATTATGTACACAACGTCTCTATATA [XGTACX_site4813]	7.76 ± 0.4
TACATTTTTATTTTTACACACATATATATATATATA [CACACA_site1021]	9.28 ± 0.33
AAGTATTATTATAAGACACACATGTATATAAGTATA [CACACA_site1479]	7.67 ± 0.5
TTAAGTATTTTACGTACACACTTATAAATGTACAGG [CACACA_site6012]	7.92 ± 0.3
TATAATATATTTATATGTACTTATTTATTTATATAT [XGTACX_site6519]	7.59 ± 0.3
GAGTTTATTCTTTTTATACACACCTTATTTGATTAA [CACACA_site735]	7.97 ± 0.73
TATTATTTTATGAGACATAAAAAAAAAAAAAAAAAA [CACACA_negctrl_site1534]	8.08 ± 0.67
TCTTTATATATATATATATGTGTGAATGTTAAGTAT [XGTACX_negctrl_site135]	8.21 ± 0.54
ATTTTTTTTTTTTCCTTACACACATATTTCATTTTA [CACACA_site748]	7.96 ± 0.57
ATATATATATATATAGTGCATAATGTTTTAATAGAT	11 ± 0.33
AAATTGTCTGCATATAGTACATAAATATATTAATAT [XGTACX_site4557]	7.88 ± 0.49
ATATATAAAATATATTGTACATTAACATATATATTT [XGTACX_site2055]	7.54 ± 0.47

Sequence	gcPBM binding intensity (ln)
GTAATATTATATAGTTGTACTTTTTTTTTATTATAT [XGTACX_site483]	8.15 ± 0.32
ATATATAAATAAATAGTGCATTTTAATATTTAACGT	10 ± 0.18
AAACTTGACGGACACACACACACATATATAAAAAAA [CACACA_site4577]	8.25 ± 0.41
AGTAAAAGAAAGCACACACACATGTATATATGTATG [CACACA_site3858]	8 ± 0.3
CAATATAAAAAACACACGCACACAAAAAAAAAAAAA [CACACA_site3521]	8.07 ± 0.7
TTTAAATATTTTAACACACTCATATTTAGGTTACAA [CACACA_site5685]	7.82 ± 0.59
TCCATATATATTATGTGTACATATTATATATATAAA [XGTACX_site7525]	7.83 ± 0.13
TTTACATATTTATATACACACTTTTGCGTGTCTGGT [CACACA_site4750]	7.7 ± 0.51
TAATCCATAAGAAGCACACACATATAAATATATTTT [CACACA_site6774]	7.85 ± 0.37
AGTGTGTGTGCGTATAGTACATATACATATATACAC [XGTACX_site6882]	8.35 ± 0.42
ATAATACAAAATACATGTACAAATATTTTTCATATT [XGTACX_site1721]	7.83 ± 0.33
TAGTACACACAAAATACATGCGGGGTTTAATATTTA [TGCATGCA_site576]	7.87 ± 0.45
AATTCTTTCATATATTGTACGTATTCCCATAAAATA [XGTACX_site5923]	8.28 ± 0.53
GTTCTTTCAAGTTATACACACCAAAAAAAAAAAAAA [CACACA_site7435]	8.27 ± 0.29
AATATCATCAAACGCACACATACATAAATATATTAT [CACACA_site2174]	8.61 ± 0.23
AACGGGGCCAAGAAATATAAATAATCAAAACAAAAA [XGTACX_negctrl_site320]	7.97 ± 0.42
TGTGCACGCATATACACACACAAATACAATGATAAA [CACACA_site6656]	8.92 ± 0.11
TTTCTTTATTTTTTTTTTTTTTTTTTTCCTTTTTTT [TGCATGCA_negctrl_site231]	7.45 ± 0.46
TGTTATATTTGTGCGTGTACACATTTGAAAAAATAT [XGTACX_site3796]	8.59 ± 0.35
TAAATAATAATAAAATGTACATTATATATGTATATG [XGTACX_site8672]	7.66 ± 0.41
TTTTTTTTTTTTTTCTGTACTGATACTTATAGAGTT [XGTACX_site4736]	7.94 ± 0.51
TTTTTTCTTTTTATAACACACAGGTGAAAAATAATA [CACACA_site1850]	7.92 ± 0.38
TCCTGTTGAGAATGGCGTACATATAAATATTATATA [XGTACX_site1841]	7.88 ± 0.15

Sequence	gcPBM binding intensity (ln)
TTTCCTCATTTTATCATACACACTTGTTTATATGTG [CACACA_site8202]	7.81 ± 0.57
AAATAATAAATATATCGTACAAATATCATATATAAA [XGTACX_site2771]	7.43 ± 0.38
CAGGTTCTTATATAGTGTACTATAGACATTCAATTG [XGTACX_site7239]	7.85 ± 0.48
TATTACTTTATATATACACACATATAACATAAATGC [CACACA_site3948]	7.83 ± 0.49
TCTTGTTATAATAATCAATATATGGGTATACTTATG [CACACA_negctrl_site1618]	7.61 ± 0.54
AAAAGGATTTTTTATACACACACTAACTAATGTATA [CACACA_site2356]	7.73 ± 0.61
AAAAAAATAAATAAGACACACACAAAAAAAAAAAAA [CACACA_site8404]	8 ± 0.83
ACCCATATTCTTTTTACACACTTGAATAAAAAATAT [CACACA_site4797]	8.2 ± 0.4
GAGATATAAAAGTGTACACATATTGTTATCCATATT [CACACA_site5441]	8.02 ± 0.36
AATAAAAAATAAAAAAGTACATGATGAAAAGGTTTA [XGTACX_site7615]	8.04 ± 0.5
TCCCTGATGTTATTTAATATACCATAAAAAAAAAAA [CACACA_negctrl_site1472]	7.91 ± 0.61
ATCTCAAATATAATAAATTATTAGGTATATATATAT [CACACA_negctrl_site1828]	9.11 ± 0.24
TATATATATATATATACATGCATACAATTTTATGAG [TGCATGCA_site466]	9.54 ± 0.67
CACACTTTATAATGTTGTACGATACATTATACCAAA [XGTACX_site941]	7.82 ± 0.43
TTTTATTCATCATATTGTACATTCTTGTATTTATAG [XGTACX_site8534]	7.83 ± 0.4
ATATACTTACATATTACACACAATATTTTTAAATGG [CACACA_site5916]	7.74 ± 0.54
TATTTATAATTAAATACACACATATATTATAGATTT [CACACA_site6435]	7.54 ± 0.47
TTGTATATACTATACACACACATACATACATACATA [CACACA_site814]	8.03 ± 0.76
CTTTTGCCCAAAAAGGTACACACCACAAAGTACATA [CACACA_site8169]	8.15 ± 0.52
CCAAACAAAAAAAAAAGTACATAAAACACCTATTTG [XGTACX_site5645]	7.83 ± 0.54

From the supplement of paper PMC11417369
